# Reference: article PMC4336329 (PLoS ONE, 2015)
# Out of some 310,000 compounds screened, about 14,000 (4.5%) showed an effect of 50% or more. Effects have a minus sign here. The list shows a part of the results.
# Target: human ether-à-go-go-related gene (hERG) potassium channel (human, UniProt Q12809)
# Assay: primary screen, population patch clamp on CHO cells stably expressing hERG
# 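Further: peak tail current of the secondary pulse compared with the same well before compound.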
# Chain of human ether-à-go-go-related gene (hERG) potassium channel (Q12809 whole entry, looked up): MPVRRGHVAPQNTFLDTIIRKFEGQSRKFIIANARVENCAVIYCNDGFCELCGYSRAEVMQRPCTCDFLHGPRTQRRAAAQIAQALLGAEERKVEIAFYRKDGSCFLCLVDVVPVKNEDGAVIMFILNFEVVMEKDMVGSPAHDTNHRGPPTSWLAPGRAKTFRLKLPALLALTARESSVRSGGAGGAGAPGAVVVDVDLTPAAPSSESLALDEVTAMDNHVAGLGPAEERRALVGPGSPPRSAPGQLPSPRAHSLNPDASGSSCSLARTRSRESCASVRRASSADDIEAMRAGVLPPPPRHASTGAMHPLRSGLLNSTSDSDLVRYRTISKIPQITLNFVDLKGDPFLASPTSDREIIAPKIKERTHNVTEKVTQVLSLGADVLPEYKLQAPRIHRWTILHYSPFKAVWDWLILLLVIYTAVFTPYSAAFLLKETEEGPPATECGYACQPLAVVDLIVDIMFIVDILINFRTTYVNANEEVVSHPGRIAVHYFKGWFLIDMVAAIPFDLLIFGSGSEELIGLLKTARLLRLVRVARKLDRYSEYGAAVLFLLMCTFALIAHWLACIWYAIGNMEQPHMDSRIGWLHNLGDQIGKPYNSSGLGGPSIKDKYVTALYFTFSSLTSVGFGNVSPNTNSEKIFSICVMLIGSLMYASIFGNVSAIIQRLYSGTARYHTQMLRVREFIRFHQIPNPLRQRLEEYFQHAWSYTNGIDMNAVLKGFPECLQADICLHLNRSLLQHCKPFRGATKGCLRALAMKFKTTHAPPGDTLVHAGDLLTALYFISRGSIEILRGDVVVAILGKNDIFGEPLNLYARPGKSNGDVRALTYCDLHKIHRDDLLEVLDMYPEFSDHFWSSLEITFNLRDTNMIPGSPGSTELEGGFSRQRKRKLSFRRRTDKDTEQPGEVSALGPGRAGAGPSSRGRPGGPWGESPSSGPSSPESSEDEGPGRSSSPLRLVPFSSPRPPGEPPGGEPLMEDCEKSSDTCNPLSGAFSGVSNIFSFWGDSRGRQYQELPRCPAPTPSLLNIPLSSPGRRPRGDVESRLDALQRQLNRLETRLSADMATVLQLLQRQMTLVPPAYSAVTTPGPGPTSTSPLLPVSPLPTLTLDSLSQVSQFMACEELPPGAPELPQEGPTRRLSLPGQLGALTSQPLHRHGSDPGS
row,Structure (SMILES),"hERG current change (%, negative = inhibition) at 10uM"
1,COc1cc(/C=N/NC(=O)c2ccncc2)ccc1OCC(=O)Nc1cccc([N+](=O)[O-])c1,25.3%
2,CSC(=S)N/N=C(\C)c1ccccc1,14.4%
3,CCOc1ccc(-c2nc(CN3CCCCC3CCn3cccn3)c(C)o2)cc1 (centres unmarked),-71.5%
4,Cc1cc(NC(=O)C(C)Oc2ccccc2)no1 (centres unmarked),11.1%
5,Clc1ccc(-n2nnnc2SCc2cn3ccccc3n2)cc1,-24.8%
6,CCOC(=O)c1ccc(NS(=O)(=O)c2cc(C)ccc2OC)cc1,-9.08%
7,CCc1cccc(OCC(=O)Nc2ccccc2N2CCCC2)c1,-8.67%
8,CC1CC(N(C(=O)c2ccco2)c2ccccc2)c2ccccc2N1 (centres unmarked),-33.6%
9,Cc1cn2c(=O)c(C(=O)NCc3ccc4c(c3)OCO4)cnc2s1,7.3%
10,O=C(/C=C/c1ccco1)N1CCN(S(=O)(=O)/C=C/c2ccccc2)CC1,-45%
11,CN(c1ccc(C(=O)N2CCCCCC2)cc1)S(=O)(=O)c1ccc(Cl)cc1,-63%
12,COCCC(=O)Nc1ccc2c(c1)CN(C(=O)CCOC)CC2,22.9%
13,Cc1ccc(NC(=O)Cc2nc(COC(=O)C(C)NS(=O)(=O)c3ccc(C)cc3)cs2)cc1 (centres unmarked),-23.6%
14,OC(COc1ccccc1)CN1CCOCC1 (centres unmarked),9.83%
15,O=C(O)CSc1ncnc2nc[nH]c12,9.28%
16,CCN(C(=O)CSc1nnc(C)n1-c1ccccc1)C1CCS(=O)(=O)C1 (centres unmarked),12.6%
17,COc1ccc(NS(=O)(=O)c2ccc(OC)c(NC(=O)CCC3CCCC3)c2)cc1,4.04%
18,CC1CCCC(C)N1CC(O)COCC1COc2ccccc2O1.Cl (centres unmarked),-15.8%
19,CCOC(=O)N1CCN(C(=O)COC(=O)Cc2ccc(OC)cc2)CC1,14.4%

row,Structure (SMILES),"hERG current change (%, negative = inhibition) at 10uM"
1,O=C(O)COc1c(-c2ccccc2)oc2ccccc2c1=O,8.96%
2,O=C(Nc1nccs1)C1CC2CCC1C2 (centres unmarked),6.6%
3,CCC(C)[C@H](NC(=O)OC(C)(C)C)C(=O)N/N=C/c1ccc2nccnc2c1 (some centres unmarked),-13.8%
4,Cn1c(NCc2ccccc2)nc2c1c(=O)n(Cc1ccc(Br)cc1)c(=O)n2C,4.56%
5,Cc1cc(Br)ccc1NC(=O)CN(C)C(=O)CSCc1ccccc1,-5.47%
6,O=C(Nc1nncs1)c1ccc(S(=O)(=O)c2ccccc2)cc1,11.4%
7,O=S(=O)(CCN1C=CC(C(F)(F)F)=NCC1)c1ccc(F)cc1,-1.83%
8,Cc1cccc(NC(=O)C2CCCN(c3ncnc4c3nc3n4CCCCC3)C2)n1 (centres unmarked),-54.2%
9,COCc1nc2ccccc2n1CCOc1ccccc1OC,0.661%
10,CCOC(=O)c1[nH]ncc1CN1CCN(Cc2ccccc2)C(CCO)C1 (centres unmarked),20.4%
11,CCNC(=S)NC(=NCc1cccnc1)Nc1nc(C)cc(C)n1,-1.31%
12,NNC(=O)[C@H](Cc1ccccc1)NC(=O)Nc1ccc2c(c1)OCCO2,11.4%
13,CN(c1ccc2nc3ccccc3c(=O)n2n1)C1CCCCC1,-16.7%
14,COCCN(C(=O)COC(=O)c1cc(C)n(-c2ccccc2)c1C)c1c(N)n(Cc2ccccc2)c(=O)[nH]c1=O,-9.46%
15,COc1ccc(/C=C/C(=O)O)cc1S(=O)(=O)N1CCC(C)CC1,19.8%
16,Cc1ccc(NC(=O)CN2C(=O)NC3(CCCc4ccccc43)C2=O)cc1S(=O)(=O)N1CCOCC1 (centres unmarked),4.45%
17,CC(C)CC(=O)NC(Nc1ccccc1F)C(Cl)(Cl)Cl (centres unmarked),-18.4%
18,Cc1nn(Cc2cccc(C(=O)O)c2)c(C)c1[N+](=O)[O-],1.8%
19,Cc1cccc(C)c1-n1c(C)cc(/C=N/NC(=O)CSc2ncccn2)c1C,-1.46%

row,Structure (SMILES),"hERG current change (%, negative = inhibition) at 10uM"
1,COCC(=O)NC1CCCCCC1,14.9%
2,Cn1c(=O)c2c(ncn2CC(=O)OCC(=O)Nc2ccccc2Cl)n(C)c1=O,4.46%
3,COc1cc2c(cc1OC)CN(C(=O)c1cc(=O)c3ccccc3o1)CC2,-8.87%
4,Cc1nc2scc(-c3ccc(Cl)cc3)c2c(=O)n1N,-14.2%
5,Cl.O=C(C1CCCO1)N1CCC(c2nc3ccccc3[nH]2)CC1 (centres unmarked),7.97%
6,Cc1c(CCOC(=O)CC23CC4CC(CC(C)(C4)C2)C3)sc[n+]1CC(=O)c1ccccc1.[Br-],-56.8%
7,Nc1ccc(S(=O)(=O)NCC(=O)OC2CCOC2=O)cc1[N+](=O)[O-] (centres unmarked),1.16%
8,CCN(CC(=O)NCc1ccc(Cl)cc1)C(=O)c1cccc(S(=O)(=O)Nc2ccc(OC)cc2)c1,-0.458%
9,CN(C)S(=O)(=O)c1ccc(NC(=O)COC(=O)C2CC3CCCC(C2)C3=O)cc1 (centres unmarked),6.03%
10,N#Cc1ccc(N2Cc3ccccc3C2=NC(=O)c2cccnc2Cl)cc1,-30.8%
11,CN(CC(=O)Nc1ccccc1Br)C(=O)CNC(=O)c1ccc2c(c1)OCO2,6.05%
12,Cc1cccc(N2CCN(C(=O)C3CCN(c4ncnc5c4nc4n5CCCCC4)CC3)CC2C)c1 (centres unmarked),-40.9%
13,CC(C)C(C(=O)NCC1CCCO1)N(C(=O)CNS(=O)(=O)c1ccccc1)C1CCCCC1 (centres unmarked),15.6%
14,CSCCOC(=O)C1=C(C)NC(=O)NC1c1ccc2c(c1)OCO2 (centres unmarked),11.3%
15,CC(C)C12CN3CC(C(C)C)(CN(C1)C3c1ccco1)C2=O (centres unmarked),8.35%
16,COc1ccc(CNS(=O)(=O)c2cccc(S(=O)(=O)N3CCOCC3)c2)cc1,-28.2%
17,Cc1ccc(OCC(=O)NNC(=O)c2cccnc2)cc1,6.56%
18,Cn1cc(CNC(=O)c2cc(COc3ccc4c(c3)CCCC4)on2)cn1,-18.5%
